# Data: the supplement of paper PMC9334596
# Values joined by “and” are separate entries in the source; they are usually repeats but may differ in a detail not shown here. Equal entries are not always repeated. Whole data set: some 5,300 compounds, median “PER2::LUC luminescence relative to vehicle control” near 0.96, cut for the highest 2% near 1.3. Some of the results follow.
# System: mPer2Luc MEF
# Test: PER2::LUC luminescence relative to vehicle control (fold of vehicle); higher = higher PER2::LUC reporter signal
# Details: 10 µM
# Procedure, shortened: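 The reported values are PER2::LUC luminescence as fold of vehicle control in mouse embryonic fibroblasts carrying the mPer2Luc reporter. Cells were seeded at ~3000 per well in 384-well plates in DMEM with 10% FBS at 37 °C and 5% CO2, and compounds were added at 10 μM 48 h later. ONE-Glo luminescence was read 24 h and 30 h after treatment.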
Compound,PER2::LUC luminescence (time after treatment 24 h),PER2::LUC luminescence (time after treatment 30 h)
CCn1cnc(C(=O)NC)c1C(=O)NC,1.03,0.981
CN1[C@@H]2CC[C@H]1C[C@@H](OC(c1ccccc1)c1ccccc1)C2,0.829,0.76
CC(=O)Nc1ccc(OCC(O)CNC(C)C)cc1 (configuration not stated),1.03,0.971
CN(C)C(=O)N[C@H]1CC[C@H](CCN2CCN(c3cccc(Cl)c3Cl)CC2)CC1,1.09,1.07
CO/N=C(\C(=O)N[C@@H]1C(=O)N2C(C(=O)O)=C(CSC(=O)c3ccco3)CS[C@H]12)c1csc(N)n1,0.958 and 0.754,0.911 and 1.05
COc1cc(C)c(Cc2cnc(N)nc2N)cc1OC,0.999,0.932
Cc1c(C)c2c(c(C)c1O)CCC(C)(CCCC(C)CCCC(C)CCCC(C)C)O2 (configuration not stated),0.829,1.01
Cc1cccc(C2CN(C)CCc3c2cc(O)c(O)c3Cl)c1 (configuration not stated),1.03,0.884
CN1CCN(c2ccc(Nc3cc(-c4cccc(-n5ccc6cc(C7CC7)cc(F)c6c5=O)c4CO)cn(C)c3=O)nc2)CC1,0.601,0.569
Cc1nc(N=Nc2cc(S(=O)(=O)O)c3cc([N+](=O)[O-])cc(S(=O)(=O)O)c3c2)c(COP(=O)(O)O)c(C=O)c1O,0.917,1.08
NC[C@H]1O[C@H](O[C@H]2[C@H](O)[C@@H](O[C@H]3O[C@H](CO)[C@@H](O)[C@H](N)[C@H]3O)[C@H](N)C[C@@H]2N)[C@H](N)[C@@H](O)[C@@H]1O,1 and 0.926,0.946 and 0.939
CN(C)C(=O)c1cc2cnc(Nc3ccc(N4CCNCC4)cn3)nc2n1C1CCCC1,0.795 and 0.733,0.895 and 0.779
CC(=O)O[C@]1(C(C)=O)CC[C@H]2[C@@H]3C=C(C)C4=CC(=O)CC[C@]4(C)[C@H]3CC[C@@]21C,0.839,1.09
C=C1[C@H](CO)[C@@H](O)C[C@@H]1n1cnc2c(=O)[nH]c(N)nc21,1.02 and 1.14,1.04 and 1.12
Nc1nnc(-c2cccc(Cl)c2Cl)c(N)n1,1.2,0.907
Cc1cc(Nc2cc(CN3CCOCC3)c3nc(C)c(Cc4ccc(Cl)cc4F)n3n2)n[nH]1,0.51,0.277
CC[C@@]1(O)C(=O)OCc2c1cc1n(c2=O)Cc2cc3c(CN(C)C)c(O)ccc3nc2-1,0.491,0.411
Oc1cc(O)cc(/C=C/c2ccc(O)c(O)c2)c1,1.15,1.09
CC(C)(S)[C@H](N)C(=O)O,1.02,0.948

Compound,PER2::LUC luminescence (time after treatment 24 h),PER2::LUC luminescence (time after treatment 30 h)
Nc1nc(=O)[nH]cc1F,1.05,1.06 and 1.16
O=C(O)/C=C(\CC(=O)O)C(=O)O,0.943,0.954
CCN1CCN(c2ccc(Nc3cc(N(C)C(=O)Nc4c(Cl)c(OC)cc(OC)c4Cl)ncn3)cc2)CC1,1.09 and 0.869,0.915 and 0.968
C[C@@H](C[C@H](N)C(=O)O)C(=O)O,1,0.924
OCC(O)C(O)C(O)CO (configuration not stated),0.99 and 0.998,0.963 and 0.951
COc1cc(-c2cc(-c3cccc(O)c3)cnc2N)cc(OC)c1OC,0.125,0.295
O=c1c(-c2ccccc2)c1-c1ccccc1,0.958,1.03
COc1cc2ncnc(Nc3ccc(O)c(Br)c3)c2cc1OC,0.727,0.668
O=C(O)c1ccc(O)c2ncccc12,1.14,1.03
O=C(c1ccc(Cl)cc1Cl)n1nnc2ccccc21,0.879,0.945
COc1cc(O)c(C(=O)c2ccccc2)cc1O,0.627,0.776
O=Cc1ccc2cccc(O)c2n1,1.1,0.962
CCCC(=O)Nc1cccc(NC(=O)c2ccccc2Br)c1,1.22,1.12
C#CC1(O)CC[C@H]2[C@@H]3CCC4=CC(=O)CC[C@@H]4[C@H]3CC[C@@]21CC (some centres not stated),0.847,0.942
CN1CC(=O)N=C1NC(=O)Nc1cccc(Cl)c1,0.949,1.1
CC1=C(C(=O)O)N2C(=O)[C@@H](NC(=O)[C@H](N)c3ccccc3)[C@H]2SC1,0.89 and 1.25 and 1.14,1.07 and 0.992 and 1.03
CCCc1c(OCCCOc2ccc(OCC(=O)O)cc2)ccc(C(C)=O)c1O,1.04,0.856
O=C1CC2(CCCC2)CC(=O)N1CCCCNCC1COc2ccccc2O1 (configuration not stated),0.89,0.769
Cc1cccn2c(=O)c(-c3nnn[nH]3)cnc12,1.24,1

Compound,PER2::LUC luminescence (time after treatment 24 h),PER2::LUC luminescence (time after treatment 30 h)
CC[C@H](C)C(=O)O[C@H]1C[C@H](O)C=C2C=C[C@H](C)[C@H](CC[C@@H](O)C[C@@H](O)CC(=O)O)[C@H]21,1.15,1.02
CCCn1c(=O)c2[nH]c(-c3ccc(OCC(=O)NCCN)cc3)nc2n(CCC)c1=O,0.998,0.938
C[C@H](CCC(=O)NCCS(=O)(=O)O)[C@H]1CC[C@H]2[C@@H]3[C@H](O)C[C@@H]4C[C@H](O)CC[C@]4(C)[C@H]3C[C@H](O)[C@]12C,1.1 and 0.951,0.767 and 0.904
Nc1ccccc1NC(=O)c1ccc(CNc2nccc(-c3cccnc3)n2)cc1,0.475,0.484
COc1cc(-c2cc(-c3ccc(N4CCNCC4)cc3)cnc2C)cc(OC)c1OC,0.218,0.23
CN(C)CC(=O)OC[C@@H](O)[C@@H](O)[C@H](O)[C@@H](O)C(=O)O,0.98,0.945
O=C(OCCN1CCCCC1)c1c[nH]c2ccccc12,1.02,0.984
CC(C)(C)NCC(O)COc1cccc2c1CC(O)C(O)C2 (configuration not stated),0.823,0.955
Cc1cc(O)cc(O)c1C(=O)O,1.06,1.1
N[C@H](C(=O)O)c1cccc(O)c1,1.07,1.04
CC(C)(C)OC(=O)Nc1ccc(-c2cc(C(=O)NCCCCCCC(=O)NO)no2)cc1,0.385,0.34
CC(=O)N[C@H]1[C@H]([C@H](O)[C@H](O)CO)OC(O)(C(=O)O)C[C@@H]1O (some centres not stated),1.03,0.921
COc1ccc2c(c1)OC[C@@H](Cc1ccc(OC)c(OC)c1)[C@@H]2O,0.96,0.933
CC[C@@H]1Cc2cc(O)ccc2C2=C1c1ccc(O)cc1C[C@H]2CC,0.924,0.862
COc1cc2c(cc1Cc1cccc(Cl)c1F)c(=O)c(C(=O)O)cn2[C@H](CO)C(C)C,0.892,0.792
CC(C)Cn1c(=O)n(C)c(=O)c2nc[nH]c21,0.966,0.968
COC(=O)C[C@H]1C(C)(C)C(=O)[C@@H]2CC3C4=CC(=O)O[C@@H](c5ccoc5)[C@]4(C)CC[C@@H]3[C@@]1(C)C2=O (some centres not stated),0.871,0.881
Cn1sc(=O)n(Cc2ccccc2)c1=O,0.727,0.578
